Test results reported in PubChem BioAssay AID1347428 (National Center for Advancing Translational Sciences (NCATS), 2020).
Screen size: about 91,000 compounds; about 290 (0.32%) were called active. The inconclusive results got no clear call from the source; some entries with a clear call stand among them for comparison. The call rests on the fitted dose curve; in most records, active means well fitted inhibition curve with a large enough effect; inconclusive means small, poorly fitted or top-dose-only effect; inactive means no such curve, though single readings can be large or run the other way. Potencies beside an inconclusive call are fits to weak or partial responses and may not hold up.
Further: nearly all actives have a fitted effect of over 25% in size.
On the % scale 0 is the no-effect control and ±100 the full control effect; potency means the concentration at half of the fitted maximal effect; tags describe the fitted curve by direction and shape.

The compounds below were run against Single-stranded DNA cytosine deaminase (Homo sapiens) (UniProt Q9GZX7) (assay: Primary qHTS assay for inhibitors of Activation Induced Cytidine Deaminase (AID): AID signal). Details: AID deamination FRET fluorescence, UDG-coupled, 4 h; activity change, negative = inhibition: at 115 µM (top of the series).
Chain of UniProt Q9GZX7 (Q9GZX7 whole entry, looked up): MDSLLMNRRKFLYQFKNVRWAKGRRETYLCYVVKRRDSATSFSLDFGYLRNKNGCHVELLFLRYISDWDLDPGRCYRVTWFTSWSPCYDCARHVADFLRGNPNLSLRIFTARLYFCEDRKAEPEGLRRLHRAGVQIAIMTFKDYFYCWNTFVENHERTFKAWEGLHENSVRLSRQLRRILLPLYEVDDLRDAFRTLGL
With `Cc1ccccc1-c1nc(C#N)c(NCCN(C)C)o1` the “activity change, negative = inhibition” value was inactive: -1.42%. `Cc1cccc(-c2nc3ccccc3n2Cc2ccccc2)c1` was tested, and the Potency was inconclusive: 39.8 µM [inhibitor, full curve]. For `CCOc1ccc2c(c1)cc(C(=O)Nc1ccc(F)cc1F)n2C`, the “activity change, negative = inhibition” value was inactive: -1.61%. In the case of `CCCN(CCC)CCCNC(=O)c1cn(CC)c2ccc(S(=O)(=O)N(C)C3CCCCC3)cc2c1=O`, the Potency is reported as inconclusive: 56.2 µM [inhibitor, partial curve, poor fit]. With `Cc1cc(N)c2ccccc2[n+]1CCCCCCCCCC[n+]1c(C)cc(N)c2ccccc21` the Potency was active: 50.1 µM. With `CN(C)c1ccc(CNC(=O)c2nccnc2N)cn1` the “activity change, negative = inhibition” value was inactive: -3.62%. In the case of `CCOC(=O)C1CCCN(C(=O)C2CCN(S(=O)(=O)c3c(C)noc3/C=C/c3ccccc3F)CC2)C1` (stereo not given), the Potency is reported as inconclusive: 100 µM [inhibitor, single point]. `O=C(CSC1=Nc2ccccc2N=C(c2ccc(F)cc2)C1)Nc1cccc(C(F)(F)F)c1` was tested, and the Potency was inconclusive: 14.1 µM [inhibitor, full curve]. With `CCOC(=O)c1ccc(Oc2c(C(F)(F)F)oc3cc(OC(=O)c4ccccc4)ccc3c2=O)cc1` the “activity change, negative = inhibition” value was inactive: -6.92%. With `COc1ccccc1NC(=O)CCn1nc(-c2ccccc2OC)c2c(C)cc(C)nc21` the Potency was inconclusive: 50.1 µM [inhibitor, partial curve, poor fit]. With `Cc1cc(C)c(C)c(OCC(=O)Nc2ccc(S(=O)(=O)Nc3nc(C)cc(C)n3)cc2)c1` the Potency was “inactive”. With `CCC1CCc2c(sc(NC(=O)c3c(-c4ccccc4)noc3C)c2C(=O)OC)C1` (stereo not given) the “activity change, negative = inhibition” value was inactive: -4.33%. `Cc1cccc(-c2noc(CN(C3CCCCC3)S(=O)(=O)c3ccc(F)cc3)n2)c1` was tested, and the Potency was inconclusive: 89.1 µM [inhibitor, single point]. In the case of `S=C(Nc1ccc(Cl)cc1Cl)NC1CC1`, the “activity change, negative = inhibition” value is reported as inactive: -2.38%. In the case of `O=C(O)C/C(=C/c1ccsc1)c1nc2ccccc2s1`, the “activity change, negative = inhibition” value is reported as inactive: 2.93%. `COc1ccc(NC(=O)CSC2=Nc3ccccc3C3=NC(CCC(=O)NCc4cccs4)C(=O)N23)cc1` (stereo not given) was tested, and the Potency was inconclusive: 20 µM [inhibitor, full curve]. In the case of `Cc1ccc(NC(=O)CSc2nnc(-c3cc4occc4n3C)n2-c2ccccc2C)c(Cl)c1`, the Potency is reported as inconclusive: 7.94 µM [inhibitor, full curve, poor fit]. With `Cc1cc(C)cc(C(=O)NCC(=O)O)c1` the “activity change, negative = inhibition” value was inactive: -1.71%. `O=C(NCCCCCO)C1CCN(c2nc(Cl)nc3nc[nH]c23)CC1` was tested, and the “activity change, negative = inhibition” value was inactive: -7.57%. `Cc1ccc(CN2C(=O)N(c3ccc(F)cc3)C(=O)C2CC(=O)Nc2ccc(Cl)cc2)cc1` (stereo not given) was tested, and the “activity change, negative = inhibition” value was inactive: 6.36%. For `O=C(CCc1c[nH]c2ccccc12)N(CC(F)(F)F)C1CC1`, the “activity change, negative = inhibition” value was inactive: -9.86%. For `CN(c1ccccc1)S(=O)(=O)c1ccc(C(=O)OCn2nnc3ccccc3c2=O)cc1`, the “activity change, negative = inhibition” value was inactive: 0.546%. For `Cc1nc2ccc(S(=O)(=O)N(CC(=O)Nc3cccc(Cl)c3)Cc3ccccc3)cc2s1`, the Potency was inconclusive: 17.8 µM [inhibitor, single point]. `CC(Sc1ccc(Cl)cc1)C(=O)NC1CC2CCC1C2` (stereo not given) was tested, and the “activity change, negative = inhibition” value was inactive: 2.28%. In the case of `Cc1c(O)ccc2c(CN3CCN(c4cccc(C(F)(F)F)c4)CC3)cc(=O)oc12`, the “activity change, negative = inhibition” value is reported as inactive: 2.98%. With `N#Cc1ccccc1OCC(=O)NC12CC3CC(CC(C3)C1)C2` the “activity change, negative = inhibition” value was inactive: -15.8%. For `O=CN1CCN(C(C(=O)O)c2cn(Cc3ccccc3)c3ccc(C(=O)O)cc23)CC1` (stereo not given), the “activity change, negative = inhibition” value was inactive: -0.174%. With `CC(C)(C)OC(=O)N1CCC(c2nnc(SCc3cccc(Cl)c3)o2)CC1` the Potency was inconclusive: 11.2 µM [inhibitor, full curve]. For `Cc1ccccc1Nc1c(-c2ccc(N3CCOCC3)cc2)nc2ccccn12`, the Potency was inconclusive: 31.6 µM [inhibitor, full curve, poor fit]. `COc1ccccc1CNC(=O)CCC1N=C2c3ccccc3N=C(SCc3ccc(C)cc3C)N2C1=O` (stereo not given) was tested, and the Potency was inconclusive: 56.2 µM [inhibitor, partial curve, poor fit]. `O=S(=O)(Cc1cccc(F)c1)c1ccc2ccccc2c1` was tested, and the “activity change, negative = inhibition” value was inactive: 1.27%. `CCOc1ccc(CCNC(=O)c2ccc3c(c2)c(C)c(C)n3Cc2ccccc2)cc1OCC` was tested, and the Potency was inconclusive: 10 µM [inhibitor, partial curve, poor fit]. `COc1ccccc1C(=O)NC1=C(C)Nc2ncnn2C1c1c[nH]c2ccccc12` (stereo not given) was tested, and the “activity change, negative = inhibition” value was inactive: -5.68%. `COc1ccc(S(=O)(=O)c2c(O)c3ccc(C(=O)NCc4ccc(F)cc4)cc3[nH]c2=O)cc1` was tested, and the Potency was inconclusive: 56.2 µM [inhibitor, partial curve, poor fit]. For `NC(=O)CNS(=O)(=O)c1ccc(C(=O)O)cc1`, the “activity change, negative = inhibition” value was inactive: -0.829%. For `CCCN(CCC)CCCNC(=O)c1cc2c(-c3ccc(OC)c(OC)c3)nn(C)c2s1`, the Potency was inconclusive: 50.1 µM [inhibitor, partial curve, poor fit]. `O=C(Nc1oc2ccccc2c(=O)c1-c1ccc(F)cc1)c1ccc([N+](=O)[O-])cc1` was tested, and the “activity change, negative = inhibition” value was inactive: 1.33%. `COc1ccccc1C(=O)NCC(c1cccnc1)N1CCc2ccccc2C1` (stereo not given) was tested, and the Potency was inconclusive: 56.2 µM [inhibitor, partial curve, poor fit]. With `O=C(CSc1nccn1-c1ccc(Cl)cc1)Nc1ccc(Cl)c(Cl)c1` the “activity change, negative = inhibition” value was inactive: -25.5%. `O=C(NCc1cccc(Br)c1)c1cnn(-c2ccc(F)cc2)c1-n1cccc1` was tested, and the Potency was inconclusive: 56.2 µM [inhibitor, partial curve, poor fit]. `COC(=O)c1ccc(NC(=O)c2nc(-c3ccc(Cl)cc3)n3c2CCCCC3)cc1` was tested, and the Potency was inconclusive: 89.1 µM [inhibitor, single point]. In the case of `CCOc1ccccc1CNCc1cccn1-c1nnc(N2CCN(c3ccccc3)CC2)s1`, the Potency is reported as inconclusive: 70.8 µM [inhibitor, single point]. With `CC(=O)c1c(C)oc2c1cc(NS(=O)(=O)c1ccc(Br)cc1)c1ccccc12` the “activity change, negative = inhibition” value was inactive: 36.2%. With `COc1ccccc1S(=O)(=O)Cc1ccc(C(=O)NCc2ccc(Cl)cc2)o1` the “activity change, negative = inhibition” value was inactive: -2.72%. In the case of `Cn1cnc2c1c(=O)n(CCCSc1nnc(-c3ccc(C(C)(C)C)cc3)o1)c(=O)n2C`, the Potency is reported as inconclusive: 56.2 µM [inhibitor, partial curve, poor fit]. With `Cc1cc(Br)ccc1NC(=O)c1sc2nc(-c3ccncc3)ccc2c1N` the Potency was inconclusive: 50.1 µM [inhibitor, partial curve, poor fit]. For `O=C(C1CCCN(S(=O)(=O)c2cccc3nsnc23)C1)N1CCN(c2ccccc2F)CC1` (stereo not given), the Potency was inconclusive: 70.8 µM [inhibitor, partial curve, poor fit]. `Cc1c(Cc2ccccc2)c(=O)oc2c(C)c(OS(C)(=O)=O)ccc12` was tested, and the “activity change, negative = inhibition” value was inactive: -5.27%. With `O=C(Nc1ccc(S(=O)(=O)N2CCCCC2c2cccnc2)cc1)c1ccc(Br)cc1` (stereo not given) the Potency was inconclusive: 79.4 µM [inhibitor, partial curve]. For `Cc1nc(NC(C)(C)C)sc1C(=O)Nc1ccccc1`, the “activity change, negative = inhibition” value was inactive: -1.7%. `O=C(CC(c1ccccc1)c1ccccc1)Oc1cc(Cl)ccc1Cl` was tested, and the “activity change, negative = inhibition” value was inactive: 0.874%. For `COc1ccc(CCNC(=O)c2ccc3c(c2)CCN3S(=O)(=O)c2ccc(C)cc2)cc1`, the Potency was inconclusive: 3.98 µM [inhibitor, full curve, poor fit]. `CC(C)(C)OC(=O)N1CCC(c2c(C(=O)NC3CCN(Cc4ccccc4)CC3)cnn2-c2ccc(F)cc2F)CC1` was tested, and the Potency was inconclusive: 22.4 µM [inhibitor, full curve]. In the case of `COc1cccc(NC(=O)CSC2=Nc3ccccc3C3=NC(CCC(=O)NCCc4ccccc4)C(=O)N23)c1` (stereo not given), the Potency is reported as inconclusive: 11.2 µM [inhibitor, full curve, poor fit]. In the case of `Cc1ccc(NC(=O)CN2CCN(S(=O)(=O)c3ccc(C(C)C)cc3)CC2)cc1F`, the Potency is reported as inconclusive: 39.8 µM [inhibitor, single point]. With `CCCOc1ccc(CN(C(=O)Cc2coc3ccc(CC)cc23)C2CCS(=O)(=O)C2)cc1` (stereo not given) the Potency was inconclusive: 17.8 µM [inhibitor, full curve, poor fit]. `FC(F)(F)c1ccc(=S)[nH]c1` was tested, and the “activity change, negative = inhibition” value was inactive: 4.68%. `O=C(Nc1nnc(S(=O)(=O)N2CCCc3ccccc32)s1)c1ccccc1Cl` was tested, and the Potency was inconclusive: 63.1 µM [inhibitor, partial curve, poor fit]. For `O=C(COCC(=O)Nc1ccc(Oc2ccccc2)cc1)Nc1ccccc1`, the Potency was inconclusive: 50.1 µM [inhibitor, partial curve]. For `CC(C)c1ccc(NC(=O)c2ccc3c(c2)CCN3S(=O)(=O)c2ccccc2)cc1`, the Potency was inconclusive: 50.1 µM [inhibitor, partial curve, poor fit]. With `COc1cc(OC)cc(-c2cc3nc(C)c(CCC(=O)NCc4ccccc4)c(C)n3n2)c1` the Potency was inconclusive: 56.2 µM [inhibitor, partial curve, poor fit]. With `O=C(CSCc1cnn(-c2ccccc2)c1-n1cccc1)NCc1ccc(Cl)cc1` the Potency was inconclusive: 35.5 µM [inhibitor, full curve, poor fit]. In the case of `COc1ccc(-c2nc(NC(C)c3ccccc3)c3ccccc3n2)cc1` (stereo not given), the “activity change, negative = inhibition” value is reported as inactive: -12.7%. For `O=C(Nc1ccc(O)c(-c2nc3ccccc3o2)c1)c1sc2ccccc2c1Cl`, the “activity change, negative = inhibition” value was inactive: 4.25%. For `O=C1SCCC1NC(=O)C(Sc1ccccc1)c1ccccc1` (stereo not given), the “activity change, negative = inhibition” value was inactive: -6.8%. With `COc1ccccc1N1CCN(C(=O)c2cn(CC(C)C)c(=O)c3c2c2ccccc2n3C)CC1` the “activity change, negative = inhibition” value was inactive: 6.81%. With `COc1ccc(-c2noc(CSc3nnc(C)n3-c3ccc(C)cc3)n2)cc1OC` the “activity change, negative = inhibition” value was inactive: -20.6%. For `CCOC(=O)C(C)Oc1ccc2c(=O)c(Oc3ccc(C(=O)OC)cc3)c(C)oc2c1` (stereo not given), the “activity change, negative = inhibition” value was inactive: -20.9%. With `Cc1ccc(S(=O)(=O)N(CC(=O)NCCc2ccccc2)Cc2c(F)cccc2Cl)cc1` the Potency was inconclusive: 28.2 µM [inhibitor, partial curve, poor fit]. For `CC(C)CCN(Cc1ccco1)C(=O)c1cc2c(s1)-c1ccccc1OC2`, the Potency was inconclusive: 56.2 µM [inhibitor, partial curve, poor fit].
